Data taken from ChEMBL document CHEMBL4888484, “Replenishing the malaria drug discovery pipeline: Screening and hit evaluation of the MMV Hit Generation Library 1 (HGL1) against asexual blood stage Plasmodium falciparum ,using a nano luciferase reporter read-out” (2022).
About 540 (0.36%) of roughly 150,000 compounds showed an effect of 50% or more. Some of the results follow.

tested on: Plasmodium falciparum; assay: Primary screen in NF54 nanoGlo assay, in single point, at 2uM, 72h; a lower Z score goes with more inhibition; format: functional, Erythrocyte; conditions: timepoint 72 hour

| Structure (SMILES) | % Inhibition [%] | Z score |
| --- | --- | --- |
| CC(CCn1cccn1)NCC1CC=CCC1 (stereo not given) | -8 | 1.17 |
| COc1nn(C)cc1C(=O)N1CCN(c2ccc(-c3cccs3)nn2)CC1 | 14 | -2.17 |
| Cc1ccc(S(=O)(=O)[C@H]2CS(=O)(=O)C[C@@H]2NC(C)C)cc1 | 3 | -0.39 |
| Cn1cc(-c2ccc(-n3cnnc3)nc2)cn1 | -5 | 0.76 |
| COc1cc(NS(=O)(=O)C2CC2)ccc1Cl | 11 | -2.04 |
| CN1CC(=O)N[C@@H]2CN(C(=O)c3ccc4c(c3)ncn4CCO)CC[C@@H]2OCc2cccc(c2)Oc2cccc(c2)CCC1=O | 15 | -2.02 |
| O=C(Nc1ccc(OCC2CCOC2)cc1)N1CCC2CCCCC21 (stereo not given) | -8 | 0.83 |
| O=C(CN1CCOC[C@@]12CCOC2)Nc1ccc2c(c1)CCC2 | -10 | 1.2 |
| O=C(NCc1ccc(-c2cccc(Cl)c2)o1)[C@H]1CC[C@H](O)CC1 | -19 | 1.86 |
| CC1CCC2(CC1)CCN(C(=O)[C@@H]1CCCO1)C2 (stereo not given in full) | -1 | 0.23 |
| Cn1ncc(NC(=O)C(C)(C)c2ccc(Cl)cc2F)cc1=O | -6 | 0.94 |
| C[C@H]1CC(=O)N(C)c2ccc(NC(=O)NCc3nc(N(C)C)no3)cc21 | -2 | 0.25 |
| Cc1nc(C(=O)N(C)C)ccc1C(=O)NCCNC1CCCCCC1 | -12 | 1.88 |
| CC(C)Cc1nc(NC(=O)CNC(=O)c2cnccn2)n[nH]1 | -12 | 1.5 |
| CC(C)(C)[C@H]1CCCN(c2ccnc(C(N)=O)c2)C1 | -8 | 0.94 |
| CO[C@@H](CNC(=O)c1ccc(C(=O)O)cc1F)C(C)(C)C | -11 | 2.1 |
| Cc1nc(CC(=O)Nc2cnn3c2NCCC3)cs1 | 1 | -0.14 |
| N#Cc1cccc(N2CC[C@@]3(CCCN(C4CCCCC4)C3=O)C2)n1 | 1 | -0.26 |
| COc1cc(CNC2CCCCC2)ccc1OCc1cccc(C)c1 | 29 | -3.31 |
| CC1(C)C[C@H](NC(=O)Nc2nnc(-c3ccsc3)s2)C(C)(C)O1 | -9 | 1.69 |
| COc1nc(N(C)Cc2cnn(C)c2C)ncc1F | 28 | -3.86 |
| O=C(Nc1ccc(S(=O)(=O)N2CCCC2)cc1)C1=Cc2ccccc2OC1 | -10 | 1.14 |

| Structure (SMILES) | % Inhibition [%] | Z score |
| --- | --- | --- |
| COc1ccccc1OCC(=O)N1CCC(=C2CC2)CC1 | -23 | 2.72 |
| Cc1noc(C)c1C(C)C(=O)NC(C)C1(N2CCOCC2)CCCC1 (stereo not given) | 31 | -3.54 |
| Cn1cc([C@]2(CNC(=O)C3(O)CCCC3)CCCO2)cn1 | -15 | 2.06 |
| Cn1cc(S(=O)(=O)N(Cc2ccccc2)c2ccncc2)cc1C(N)=O | -6 | 0.73 |
| COc1ccc(C)cc1S(=O)(=O)N[C@@H]1Cc2ccccc2[C@H]1N | -2 | 0.49 |
| Cc1ncc(CN(C)C(=O)Nc2cccc(-c3nnco3)c2)s1 | -11 | 1.67 |
| CCc1[nH]nc(-c2cccc(F)c2)c1NC(=O)CC1CCCC1 | -21 | 2.08 |
| CCOc1ncccc1-c1cccc2cccnc12 | -3 | 0.36 |
| CCc1ccc([C@@H]2CC(=O)Nc3cc(N4CCCC4)c(C(N)=O)cc32)o1 | -18 | 1.74 |
| C[C@@H](Cc1ccccc1)C(=O)N1CC(=O)NCC1(C)C | 7 | -1.01 |
| Cc1nc2c(C(=O)NC(Cc3ccncc3)[C@H]3C[C@H](O)C3)cccc2[nH]1 (stereo not given in full) | -4 | 0.78 |
| O=C(O)c1cnc(C=Cc2csc(-c3ccc(F)cc3)n2)[nH]c1=O | -8 | 1.23 |
| Cc1ccc(CC(=O)N2CCC(CCOc3cccnc3)CC2)cc1 | -8 | 1.45 |
| Cc1ccccc1C(=O)N[C@@H]1CCCC[C@H]1NC(=O)C1CCN(S(=O)(=O)c2ccc(C(C)(C)C)cc2)CC1 | -16 | 1.53 |
| Cc1ccc(C)c(NC(=O)Cn2nc3cc(C)nc(N4CCCC4)n3c2=O)c1 | -23 | 2.42 |
| CCOc1ccccc1N1Cc2cccc(OCC)c2OCC1=O | -14 | 1.54 |
| CCc1n[nH]c(NS(=O)(=O)c2ccc(C)s2)n1 | 0 | 0.03 |
| COCc1cc(=O)n2c(n1)N(CCc1ccccc1)CC2 | -8 | 1.56 |
| COC1CCCC1NCCn1cc(Br)cn1 (stereo not given) | -6 | 0.69 |
| Cc1cc(NC(=O)c2ccc3c(c2)OCO3)nc(=O)[nH]1 | 3 | -0.4 |
| CC1CC1C(=O)N(C)CC1COc2ccccc2O1 (stereo not given) | -13 | 2.44 |
| Cc1cccc(C)c1-n1c(=O)n(C[C@H]2CCCO2)c(=O)c2c1ncn2CC(=O)c1ccc(Cl)cc1 | -4 | 0.54 |

| Structure (SMILES) | % Inhibition [%] | Z score |
| --- | --- | --- |
| COCCC(NC(=O)C1C2CCCC21)c1ccc(C)o1 (stereo not given) | 17 | -1.94 |
| C[C@H]1Cc2c(NC(=O)CC3CCCC3)nn(C)c2NC1=O | 11 | -1.47 |
| COc1ccc(-c2ccc(C(=O)NCc3nc4ccccc4[nH]3)c(=O)[nH]2)cc1 | -6 | 0.7 |
| CC(C)C(=O)N1C[C@H](O)C[C@H]1c1nnc2n1CCN(C(=O)C1CCCCC1)C2 | -9 | 1.02 |
| COc1c(F)cccc1CN1C[C@H]2CCC[C@@H](C1)N(C)C2 | 4 | -0.56 |
| Cc1cc(CN(C)C[C@@]2(C)CCCN(C(=O)OC(C)(C)C)C2)no1 | 4 | -0.58 |
| Cc1cc2c(cnc3ncnn32)c(=O)n1-c1ccc2c(c1)OCCO2 | -5 | 0.68 |
| Nc1[nH]nc(-c2ncnn2C2CCCCC2)c1Cl | 1 | -0.12 |
| COc1ccc(-c2csc(N3CCN(C/C=C/c4ccccc4)CC3)n2)cc1 | -12 | 2.29 |
| COc1ccc(-c2cc(C(=O)Nc3ncc(Cc4cccc(C)c4)s3)c3ccccc3n2)cc1OC | -1 | 0.21 |
| CCc1nccn1CCC(=O)N1CC[C@@](O)(C2CCOCC2)[C@H](C)C1 | -5 | 0.94 |
| CN(C)C(=O)c1cccc(Cn2ccnc2-c2ccccc2-c2ccco2)c1 | -11 | 1.45 |
| CCC[C@H](C)N1CC2(CCN(C(=O)c3cc(C)nc(C)n3)CC2)OC1=O | 10 | -1.79 |
| Cc1ccc(C)c(-c2nn(CN(C)Cc3ccccc3)c(=O)c3ccccc23)c1 | 7 | -0.96 |
| CC1C(OC(=O)c2ccc(-n3cccn3)nc2)CC2CC1C2(C)C (stereo not given) | -6 | 0.84 |
| O=C(CCCn1cnnn1)N1CCC[C@H]1c1nc2ccccc2[nH]1 | -7 | 0.86 |
| Cc1nc(-c2ccc(-c3noc(-c4ccnn4C)n3)cc2)cs1 | -21 | 2.09 |
| C=CCN1CCC[C@H]1C(=O)NCCc1cc[nH]n1 | 1 | -0.1 |
| CCCN1CCCN(Cc2cc3ccccc3[nH]c2=O)CC1 | 0 | 0 |
| CCn1c(=O)c(N2CCC(C(=O)N[C@H]3CCS(=O)(=O)C3)CC2)nc2ccccc21 | -6 | 1.14 |
| CC(NC(C)c1nccn1C)c1cscn1 (stereo not given) | -2 | 0.44 |
| CCCCc1cc(N2C[C@H](C(=O)O)[C@@H](C3CC3)C2)ncn1 | -6 | 0.65 |

| Structure (SMILES) | % Inhibition [%] | Z score |
| --- | --- | --- |
| Cc1nn(C(C)(C)C)c2nc(C3CC3)cc(C(=O)N3CCN(c4ccccc4)CC3)c12 | 7 | -1.07 |
| CC1(C)NC(=O)N(CCCN2CCc3ccccc3[C@@H]2C(N)=O)C1=O | -14 | 1.25 |
| CCN(CC)C(=O)Cn1ccnc1-c1cncc(Br)c1 | 25 | -2.79 |
| COCCN(Cc1cncs1)C(=O)[C@@H]1CCCO1 | -4 | 0.65 |
| N#Cc1ccc(N2CCC[C@H]2CCc2ccccn2)nc1 | -17 | 2.69 |
| CC(C)N1CCCC[C@H]1C(=O)Nc1ccn(CCCC#N)n1 | -11 | 1.51 |
| Cc1cc(C)cc(/N=C(\NCc2ccncc2)NC(=O)c2cccc(F)c2)c1 | -7 | 1.22 |
| c1ccc(Nc2nccc(-c3ccc4c(c3)OCO4)n2)cc1 | 27 | -3.06 |
| COc1ccc2c(c1)[C@H](C(=O)Nc1ccncc1OC(C)C)CC2 | 3 | -0.4 |
| Cc1n[nH]c2ncc(NC(=O)c3ccc(CCC(F)(F)F)cc3)cc12 | 37 | -4.75 |
| COc1ncccc1C(=O)NCc1nccnc1-c1ccoc1 | 16 | -1.99 |
| CC(C)c1nccc(N2CCN([C@@H](C(N)=O)c3ccccc3)CC2)n1 | 19 | -2.48 |
| CCNc1cnc(-c2noc([C@H]3CCO[C@@H]3c3cccnc3)n2)cn1 | 3 | -0.39 |
| CCCOc1ccccc1[C@H](C)NC(=O)N1CC(O)C1 | -9 | 0.88 |
| C=C[C@@H]1CCCCN1C(=O)CC(CC)(CC)C(=O)O | 1 | -0.14 |
| CC(=O)Nc1ccccc1CN(Cc1ccc(F)cc1F)C1CC1 | 9 | -0.85 |
| CN(CC1(C)COC1)C(=O)[C@H]1CC[C@H](O)CC1 | -14 | 2.1 |
| COc1ccc(OC)c(C2CN(C(=O)NC(C)C)CC2C(=O)N2CCCC2)c1 (stereo not given) | -16 | 1.5 |
| C[C@@H](CO)NC(=O)Nc1cncc(Cl)c1 | -8 | 1.6 |
